According to PubChem BioAssay AID686979 (National Center for Advancing Translational Sciences (NCATS), 2013):
Several values for one entry are separate records, joined by “and”; a condition that tells them apart may be missing. Equal values may be shown once. The campaign covered roughly 420,000 compounds. About 50,000 (12%) were called active. The shares of active, inactive and inconclusive entries below differ from those in the screen. Calls follow the shape of the dose curve; as a rule, active = well fitted inhibition curve with a large enough effect; inconclusive = small, poorly fitted or top-dose-only effect; inactive = flat fitted curve, though single readings scatter. Potencies beside an inconclusive call are fits to weak or partial responses and may not hold up.

assay: qHTS for Inhibitors of human tyrosyl-DNA phosphodiesterase 1 (TDP1): qHTS in cells in presence of CPT; settings: chicken DT40 Tdp1-/-;hTDP1 cells + 20 nM CPT, ATP luminescence, 48 h; activity change, negative = growth inhibition: at 46.2 µM (top of the series); also: nearly all actives have a fitted effect of over 55% in size
In short: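 Chicken DT40 Tdp1-/- cells complemented with human TDP1, 400 cells/well, exposed to compounds plus 20 nM camptothecin for at least 48 h at 37 C; viability read as ATP content by CellTiter-Glo luminescence.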
% is scaled to controls: 0 for no effect and ±100 for the full control effect; potency is read from the fitted curve at half-maximal effect; tags tell the direction and shape of the fitted curve.

SMILES | Potency | activity change, negative = growth inhibition
O=C(NCCCN1CCCC1=O)c1cc(-c2ccc(F)cc2)nc2ccccc12 | inconclusive: 20.6 µM [inhibitor, single point] | 
CC(=O)N[C@@H](Cc1c[nH]c2ccccc12)C(=O)OCC(=O)Nc1cc(C)on1 | inactive | 
Cc1ccc(N2CCN(C(=O)c3[nH]c(C(F)(F)F)nc3-c3ccccc3)CC2)cc1 | inconclusive: 18.4 µM [inhibitor, single point] | 
COc1cccc(C(=O)NNC(=O)C(=O)Nc2ccc(C)cc2)c1 | inconclusive: 23.1 µM [inhibitor, single point] | 
[O-]/C(=C(\C(=S)Nc1ccc(Cl)cc1)[n+]1ccccc1)c1ccc(OC(F)F)cc1 | inconclusive: 25.9 µM [inhibitor, single point] | 
COc1cccc(NC(=S)Nc2ccc(O)cc2)c1 | inactive | 
Cc1ccccc1Cn1c2ccccc2c2cnn(CC(=O)NC3CCCCCC3)c(=O)c21 | active: 11.6 µM | 
CN(C(=O)COC(=O)c1cccc(S(=O)(=O)N2CCOCC2)c1)C1CCS(=O)(=O)C1 (stereo not drawn) | inactive | 
O=C(C/C=N/OCc1c(Cl)cccc1Cl)c1cnc(-c2ccccc2)s1 |  | inconclusive: -30.2% [inhibitor]
Cc1ccc(-c2nnc(SCC(=O)NC3CCCc4ccccc43)n2N)cc1 (stereo not drawn) | inconclusive: 20.6 µM [inhibitor, single point] | 
O=C(Nc1ccc2[nH]c3c(c2c1)CCCC3)c1ccco1 | inconclusive: 23.1 µM [inhibitor, single point] | 
COc1ccc(C(CNC(=O)c2oc3c(Cl)cccc3c2C)N2CCCC2)cc1 (stereo not drawn) | active: 16.4 µM | 
Cc1cc(C(=O)COC(=O)CC2Sc3ccccc3NC2=O)c(C)n1-c1ccccc1 (stereo not drawn) | inconclusive: 23.1 µM [inhibitor, single point] | 
O=C(NCC1CCCO1)C(C(=O)c1ccc(F)cc1)n1ccccc1=O (stereo not drawn) | inconclusive: 23.1 µM [inhibitor, single point] | 
COc1ccc(CCNC(=O)/C(C#N)=C/c2cccc(OCc3ccccc3)c2)cc1OC | inconclusive: 25.9 µM [inhibitor, partial curve, poor fit] | 
Cc1ccc(-n2nc(C)cc2NC(=O)c2ccc(C)s2)cc1 | inconclusive: 16.4 µM [inhibitor, partial curve] | 
CC1c2ccccc2N(S(=O)(=O)c2ccccc2)C1C (stereo not drawn) | inconclusive: 29.1 µM [inhibitor, single point] | 
CCn1nnnc1SCC(=O)N(C1CCCCC1)C1CCCCC1 | active: 10 µM | 
Cc1ccc(NC(=O)c2ccc(CN3CC(=O)N4CCCCC4C3=O)cc2)c(Cl)c1 (stereo not drawn) | inconclusive: 16.4 µM [inhibitor, single point] | 
CCn1nc(C)c(CNC(=O)c2cc(COc3cncc(Cl)c3)on2)c1C | inconclusive: 20.6 µM [inhibitor, single point] | 
CCOc1cccc(CN2CCC(n3nccc3NC(=O)c3ccc4c(c3)OCO4)CC2)c1 | inconclusive: 10.3 µM [inhibitor, partial curve] | 
CN[C@H](CC(C)C)C(=O)N[C@H]1C(=O)N[C@@H](CC(N)=O)C(=O)N[C@H]2C(=O)N[C@H]3C(=O)N[C@H](C(=O)N[C@@H](C(=O)O)c4cc(O)cc(O)c4-c4cc3ccc4O)[C@H](O)c3ccc(c(Cl)c3)Oc3cc2cc(c3O[C@@H]2O[C@H](CO)[C@@H](O)[C@H](O)[C@H]2O[C@H]2C[C@](C)(N)C(O)[C@H](C)O2)Oc2ccc(cc2Cl)[C@H]1O (stereo partly drawn) | inactive | 

SMILES | Potency | activity change, negative = growth inhibition
CN1CCN(C(=O)c2ccc3c(c2)N(Cc2ccc(C(F)(F)F)cc2)C(=O)c2ccccc2S3)CC1 | inconclusive: 23.1 µM [inhibitor, single point] | 
COC(=O)c1sccc1NC(=O)Cn1nnc(-c2ccccc2C)n1 | inconclusive: 23.1 µM [inhibitor, single point] | 
Cc1cc2sc(NC(=O)c3ccco3)nc2cc1Cl |  | inconclusive: -33.9% [inhibitor]
O=C(NC(Cc1ccccc1)C(=O)O)/C(=C/c1ccco1)NC(=O)c1cccc([N+](=O)[O-])c1 (stereo not drawn) | inactive | 
O=C(NC1CCCCC1)C1CCN(S(=O)(=O)c2cccc3nonc23)CC1 | inactive | 
Cc1[nH]c2ccc(-c3n[nH]c(=S)n3Cc3ccccc3)cc2c1C | active: 23.1 µM | 
CC(=O)Nc1ccc(-c2nc3ccc(Cl)cc3[nH]2)cc1 | inactive | 
O=C(CC(c1cccs1)N1Cc2ccccc2C1=O)Nc1ccc(F)cc1 (stereo not drawn) | inconclusive: 16.4 µM [inhibitor, single point] | 
CCOC(=O)[C@H]1[C@H]2COc3ccc(Cl)cc3[C@@H]2N2C(=O)CN(Cc3ccc(Cl)cc3)C(=O)[C@@]12C | inconclusive: 29.1 µM [inhibitor, single point] | 
CCOC(=O)C1=C(COC(=O)C2CC(=O)N(c3ccccc3CC)C2)NC(=O)NC1C (stereo not drawn) | inactive | 
CN(C)C1=NC[C@H](Cc2ccccc2)N1CC1CCCC1 | active: 14.6 µM | 
CCOc1ccc(C(=O)NC(=S)NC2CCCC2)cc1[N+](=O)[O-] | inconclusive: 29.1 µM [inhibitor, single point] | 
CC(=O)c1ccc(NC(=O)COc2ccccc2-c2nc(C(C)C)no2)cc1 | inactive | 
COc1ccccc1CCn1c(=O)c(-c2cccs2)nc2cncnc21 | inactive | 
S=C(N/N=C1\C2CN3CCN(C2)CC1(c1ccccc1)C3)Nc1ccccc1 | inconclusive: 23.1 µM [inhibitor, single point] | 
COC(=O)CNC(=O)Cn1c(=O)n(Cc2ccc(F)cc2)c(=O)c2sccc21 | inconclusive: 29.1 µM [inhibitor, single point] | 
O=C(COC(=O)Cn1cnc2ccccc2c1=O)NCCC1=CCCCC1 | inconclusive: 20.6 µM [inhibitor, single point] | 
CSc1ccccc1NC(=O)Nc1cccc(Cl)c1 | active: 15.8 µM | 
Cc1cccc(-c2nc(C#N)c(NC3CCCCC3)o2)c1 | inactive | 
c1ccc(CCCCN2CCN=C2Nc2ccccc2)cc1 | inconclusive: 29.1 µM [inhibitor, single point] | 
COc1ccc(S(=O)(=O)N2CCN(c3nc(-c4cccs4)nc4ccccc34)CC2)cc1 | inconclusive: 35.5 µM [inhibitor, single point] and inconclusive: 708 nM [inhibitor, full curve] | 
